“And” between values parts separate entries of the source, which are not always exact repeats. Equal values may be shown once. The campaign covered roughly 230,000 compounds. About 3,600 (1.6%) were called active. Inconclusive results, whose numbers are uncertain, are shown with a selection of clear calls. Calls follow the shape of the dose curve; as a rule, active = well fitted inhibition curve with a large enough effect (not every such curve was filed as active); inconclusive = small, poorly fitted or top-dose-only effect, or another doubt; inactive = no such curve, though single readings can be large or run the other way. Potencies of inconclusive entries are doubtful fits and often do not repeat.
Biological target: Lysine-specific demethylase 4E (Homo sapiens) (UniProt B2RXH2)
Test: qHTS Assay for Inhibitors of Human Jumonji Domain Containing 2E (JMJD2E)
Conditions: JMJD2E catalytic domain, FDH-coupled NADH fluorescence (FDH is formaldehyde dehydrogenase); series mostly up to 57.1 µM
Also: nearly all actives have a fitted effect of over 50% in size.
Potency is read from the fitted curve at half-maximal effect; tags tell the direction and shape of the fitted curve.

Sequence of UniProt B2RXH2 (B2RXH2 whole entry, looked up, the tested form may be a part): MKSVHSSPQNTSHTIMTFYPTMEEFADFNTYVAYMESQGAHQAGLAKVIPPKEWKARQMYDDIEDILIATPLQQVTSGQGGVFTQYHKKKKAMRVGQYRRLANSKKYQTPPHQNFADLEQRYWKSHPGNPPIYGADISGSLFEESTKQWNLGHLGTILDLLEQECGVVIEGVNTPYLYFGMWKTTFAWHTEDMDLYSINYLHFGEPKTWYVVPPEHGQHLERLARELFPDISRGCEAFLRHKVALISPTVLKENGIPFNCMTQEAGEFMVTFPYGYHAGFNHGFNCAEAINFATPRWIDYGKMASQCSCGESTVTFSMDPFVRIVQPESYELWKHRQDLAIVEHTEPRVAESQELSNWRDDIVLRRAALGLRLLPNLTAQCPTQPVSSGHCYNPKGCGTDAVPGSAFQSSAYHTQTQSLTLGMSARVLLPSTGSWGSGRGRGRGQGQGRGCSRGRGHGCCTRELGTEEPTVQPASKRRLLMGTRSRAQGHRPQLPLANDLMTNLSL

SMILES | Potency
Cc1ccc(-c2nc3cc(N)ccc3o2)cc1 | inconclusive: 25.1 µM [inhibitor, single point]
CCOC(=O)c1sc(=NC(=O)c2ccco2)n(C)c1C | inconclusive: 31.6 µM [inhibitor, single point]
COC(=O)c1cc2c(ccn2-c2ccc(F)cc2)n1CC(=O)OC(C)C | inconclusive: 31.6 µM [inhibitor, partial curve]
CCCCCn1c(CN2CCN(c3cc(Cl)ccc3C)CC2)nc2c1c(=O)[nH]c(=O)n2C | inactive
Cc1oc(-c2ccccc2Cl)nc1CN1CCCCC1c1cccnc1 (centres undefined) | active: 22.4 µM
CC(=O)Nc1ccc(NCN2C(=O)C3C4CCC(C4)C3C2=O)cc1 (centres undefined) | inactive
Cc1nc2cc(-c3sccc3-n3cccc3)nn2c(C)c1C | inconclusive: 35.5 µM [inhibitor, single point]
CCOc1ccc(-c2nc(C#N)c(NCc3ccc4c(c3)OCO4)o2)cc1 | inconclusive: 39.8 µM [inhibitor, single point]
C[C@H](NC(=O)c1ccco1)C(=O)NCCc1ccc(S(N)(=O)=O)cc1 | inactive
Cc1nc2scc(-c3cccs3)c2c(=O)[nH]1 | inactive
COc1cc(=O)n(C)c2cc(N(C)C)ccc12 | inconclusive: 28.2 µM [inhibitor, partial curve]
Cn1c(=S)[nH]c2scc(-c3cccs3)c2c1=O | inconclusive: 39.8 µM [inhibitor, single point]
CCN(CC)S(=O)(=O)c1ccc(NC(=O)Cc2cccs2)cc1 | inactive
COc1ccc(N2CCN(CCNC(=O)c3ccc4c(c3)[nH]c(=S)n3c5ccccc5nc43)CC2)cc1 | inconclusive: 28.2 µM [inhibitor, partial curve]
CCN(CC)C(=O)c1cccc(-c2ccc(OC)cc2)c1 | inactive
CCOC(=O)c1cc(NC(=O)N(CC)C2CCCCC2)c(C)nc1C | inconclusive: 31.6 µM [inhibitor, single point]
Cc1cc2ccccc2c(=O)n1CC(=O)Nc1ccc2c(c1)OCO2 | inconclusive: 35.5 µM [inhibitor, single point]
Cc1ccc(S(=O)(=O)N2CCCN(c3nc4cc(C)ccc4cc3C#N)CC2)cc1 | inconclusive: 22.4 µM [inhibitor, partial curve]
O=C(CSc1ccc([N+](=O)[O-])cc1)Nc1cccc(S(=O)(=O)Nc2ccccc2F)c1 | inconclusive: 31.6 µM [inhibitor, single point]
COc1ccc(-c2cc(=O)c3ccccc3o2)cc1 | inconclusive: 31.6 µM [inhibitor, partial curve] and inconclusive: 3.98 µM [inhibitor, partial curve]
CCn1ncc(Br)c1C(=O)Nc1cc(C(=O)OC)ccc1C(=O)OC | inconclusive: 28.2 µM [inhibitor, single point]
O=C(CSc1nccn1-c1ccc(Cl)cc1)N1CCCc2ccccc21 | inactive
CCOC(=O)c1sc2nc(CC(C)C)c3c(c2c1N)CCC3 | inconclusive: 7.08 µM [inhibitor, full curve]
O=c1[nH]c(-c2ccccc2)cs1 | inactive
CC(=O)Nc1cccc2c1C(=O)NC2=O | inconclusive: 28.2 µM [inhibitor, partial curve]

SMILES | Potency
COc1ccc(NC(=O)c2c(N)no[n+]2[O-])cc1 | inactive
Cc1cc(C)nc(N/N=C/C2=C(N3CCOCC3)C(=C\c3ccc(Cl)cc3)/CC2)n1 | inconclusive: 25.1 µM [inhibitor, single point]
O=C(Nc1ccc2c(c1)OCO2)Nc1ccc2c(c1)OCO2 | inactive
CC(C)(Oc1ccc(CCNC(=O)c2ccc(-c3ccc(Cl)cc3)o2)cc1)C(=O)O | inconclusive: 15.8 µM [inhibitor, partial curve]
O=C(Cc1cccs1)NNC(=S)NC(=O)c1ccco1 | inconclusive: 39.8 µM [inhibitor, single point]
S=c1[nH]nc(-c2ccccn2)n1/N=C/c1c(Cl)cccc1Cl | inactive
CN(C)C(CNC(=O)CCCc1c[nH]c2ccccc12)c1ccco1 (centres undefined) | inactive
CCC(C)(C)n1nnnc1C(c1ccc(O)c(OC)c1)N1CCc2ccccc2C1 (centres undefined) | inconclusive: 28.2 µM [inhibitor, single point]
Cc1ccc2c(c1)CC1(CN2C)C(=O)OC2(CCCCC2)OC1=O | inconclusive: 35.5 µM [inhibitor, single point]
O=C1OCc2cc(NS(=O)(=O)c3cccs3)ccc21 | inactive
Cc1cc(/C=C2\SC(=S)NC2=O)c(C)n1C1CC1 | inactive
CCOC(=O)Cn1c2ccc(F)cc2c2nc(C)sc21 | inactive
COc1ccc(C(CNC(=O)c2cncc(Br)c2)N(C)C)cc1 (centres undefined) | inactive
CCOC(=O)c1c(NC(=O)c2cccnc2)sc(C(C)=O)c1C | inactive
COC(=O)c1sc(N2C(=O)c3oc4ccccc4c(=O)c3C2c2cccc(O)c2)nc1C (centres undefined) | inactive
COC(=O)c1ccc(C2NC(C(=O)O)CS2)cc1 (centres undefined) | inconclusive: 28.2 µM [inhibitor, single point]
CCOC(=O)C1=C(c2ccccc2)OC(N)=C(C#N)C1c1ccc(Cl)s1 (centres undefined) | inconclusive: 25.1 µM [inhibitor, single point]
CCn1c(=O)c2[nH]c(-c3ccccc3)nc2n(CC)c1=O | inconclusive: 31.6 µM [inhibitor, partial curve]
CCCC(NC(=O)CCl)c1ccccc1 (centres undefined) | inactive
COCCCN(CCC#N)C(=O)c1c(-c2c(Cl)cccc2Cl)noc1C | inactive
CCOC(=O)c1[nH]c2ccc(OC)cc2c1C | inconclusive: 31.6 µM [inhibitor, partial curve]
Cc1cc2oc(C(=O)NCCc3ccc(S(N)(=O)=O)cc3)c(C)c2cc1C | inconclusive: 39.8 µM [inhibitor, single point]
CCCN1C(=O)C(O)(c2c(C)[nH]c3ccccc23)c2ccccc21 (centres undefined) | inconclusive: 39.8 µM [inhibitor, single point]
COC(=O)c1cc(OC)ccc1-c1ccc(OC)cc1 | inconclusive: 35.5 µM [inhibitor, partial curve]

— PubChem BioAssay AID2147 (National Center for Advancing Translational Sciences (NCATS), 2009)
